Results on 31 molecules are retold here after article PMC9911399, “Two distinct binding modes provide the RNA-binding protein RbFox with extraordinary sequence specificity”.

First the molecules themselves.
T1: RBFOX1 RRM RbFoxmut (Fox-RRM*) (Homo sapiens, UniProt Q9NWB1 109-208, R118D;E147R;N151S;E152T)
T1 sequence: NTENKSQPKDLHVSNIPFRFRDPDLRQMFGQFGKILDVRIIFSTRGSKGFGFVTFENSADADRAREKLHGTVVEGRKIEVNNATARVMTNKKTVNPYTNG

B1: AUUCUAA (DNA:RNA)
RNA: GGGAGACCGGAAUUCAGAUUGUCCAUUCUAAUUAAAUCCCGUCGUAGCCACCA
DNA 1: CAATCTGAATTCCGGTCTCCC
DNA 2: TGGTGGCTACGACGGGATT
B2: CGAUGAA (DNA:RNA)
RNA: B1 RNA with A25C, U26G, U27A, C28U, U29G
DNA 1: CAATCTGAATTCCGGTCTCCC
DNA 2: TGGTGGCTACGACGGGATT
B3: AAGUACC (DNA:RNA)
RNA: B1 RNA with U26A, U27G, C28U, U29A, A30C, A31C
DNA 1: CAATCTGAATTCCGGTCTCCC
DNA 2: TGGTGGCTACGACGGGATT
B4: AUGACUU (DNA:RNA)
RNA: B1 RNA with U27G, C28A, U29C, A30U, A31U
DNA 1: CAATCTGAATTCCGGTCTCCC
DNA 2: TGGTGGCTACGACGGGATT
B5: CAAACGU (DNA:RNA)
RNA: GGGAGACCGGAAUUCAGAUUGUCCCAAACGUUUAAAUCCCGUCGUAGCCACCA
DNA 1: CAATCTGAATTCCGGTCTCCC
DNA 2: TGGTGGCTACGACGGGATT
B6: UUAUGUU (DNA:RNA)
RNA: B5 RNA with C25U, A26U, A28U, C29G, G30U
DNA 1: CAATCTGAATTCCGGTCTCCC
DNA 2: TGGTGGCTACGACGGGATT
B7: GCGAGUU (DNA:RNA)
RNA: B5 RNA with C25G, A26C, A27G, C29G, G30U
DNA 1: CAATCTGAATTCCGGTCTCCC
DNA 2: TGGTGGCTACGACGGGATT
B8: AGUUCUG (DNA:RNA)
RNA: B1 RNA with U26G, C28U, U29C, A30U, A31G
DNA 1: CAATCTGAATTCCGGTCTCCC
DNA 2: TGGTGGCTACGACGGGATT
B9: CAUUUGG (DNA:RNA)
RNA: B5 RNA with A27U, A28U, C29U, U31G
DNA 1: CAATCTGAATTCCGGTCTCCC
DNA 2: TGGTGGCTACGACGGGATT
B10: UUUGAGA (DNA:RNA)
RNA: B1 RNA with A25U, C28G, U29A, A30G
DNA 1: CAATCTGAATTCCGGTCTCCC
DNA 2: TGGTGGCTACGACGGGATT
B11: UUGCCCU (DNA:RNA)
RNA: B1 RNA with A25U, U27G, U29C, A30C, A31U
DNA 1: CAATCTGAATTCCGGTCTCCC
DNA 2: TGGTGGCTACGACGGGATT
B12: GGCUAUU (DNA:RNA)
RNA: B5 RNA with C25G, A26G, A27C, A28U, C29A, G30U
DNA 1: CAATCTGAATTCCGGTCTCCC
DNA 2: TGGTGGCTACGACGGGATT
B13: GGGAUCG (DNA:RNA)
RNA: B1 RNA with A25G, U26G, U27G, C28A, A30C, A31G
DNA 1: CAATCTGAATTCCGGTCTCCC
DNA 2: TGGTGGCTACGACGGGATT
B14: ACCGCUU (DNA:RNA)
RNA: B5 RNA with C25A, A26C, A27C, A28G, G30U
DNA 1: CAATCTGAATTCCGGTCTCCC
DNA 2: TGGTGGCTACGACGGGATT
B15: AGUUUAU (DNA:RNA)
RNA: B1 RNA with U26G, C28U, A31U
DNA 1: CAATCTGAATTCCGGTCTCCC
DNA 2: TGGTGGCTACGACGGGATT
B16: AUUGUGG (DNA:RNA)
RNA: B1 RNA with C28G, A30G, A31G
DNA 1: CAATCTGAATTCCGGTCTCCC
DNA 2: TGGTGGCTACGACGGGATT
B17: GUCUCCU (DNA:RNA)
RNA: B5 RNA with C25G, A26U, A27C, A28U, G30C
DNA 1: CAATCTGAATTCCGGTCTCCC
DNA 2: TGGTGGCTACGACGGGATT
B18: CUAGUUU (DNA:RNA)
RNA: B5 RNA with A26U, A28G, C29U, G30U
DNA 1: CAATCTGAATTCCGGTCTCCC
DNA 2: TGGTGGCTACGACGGGATT
B19: GAACUCA (DNA:RNA)
RNA: B1 RNA with A25G, U26A, U27A, A30C
DNA 1: CAATCTGAATTCCGGTCTCCC
DNA 2: TGGTGGCTACGACGGGATT
B20: AGUGCCU (DNA:RNA)
RNA: B1 RNA with U26G, C28G, U29C, A30C, A31U
DNA 1: CAATCTGAATTCCGGTCTCCC
DNA 2: TGGTGGCTACGACGGGATT
B21: CAGUGAC (DNA:RNA)
RNA: B5 RNA with A27G, A28U, C29G, G30A, U31C
DNA 1: CAATCTGAATTCCGGTCTCCC
DNA 2: TGGTGGCTACGACGGGATT
B22: GGUCUAA (DNA:RNA)
RNA: B1 RNA with A25G, U26G
DNA 1: CAATCTGAATTCCGGTCTCCC
DNA 2: TGGTGGCTACGACGGGATT
B23: AUAACCU (DNA:RNA)
RNA: B5 RNA with C25A, A26U, G30C
DNA 1: CAATCTGAATTCCGGTCTCCC
DNA 2: TGGTGGCTACGACGGGATT
B24: UGUAGAA (DNA:RNA)
RNA: B1 RNA with A25U, U26G, C28A, U29G
DNA 1: CAATCTGAATTCCGGTCTCCC
DNA 2: TGGTGGCTACGACGGGATT
B25: AGUAUUA (DNA:RNA)
RNA: B1 RNA with U26G, C28A, A30U
DNA 1: CAATCTGAATTCCGGTCTCCC
DNA 2: TGGTGGCTACGACGGGATT
B26: AGGUAAG (DNA:RNA)
RNA: B1 RNA with U26G, U27G, C28U, U29A, A31G
DNA 1: CAATCTGAATTCCGGTCTCCC
DNA 2: TGGTGGCTACGACGGGATT
B27: GGCUCUG (DNA:RNA)
RNA: B5 RNA with C25G, A26G, A27C, A28U, G30U, U31G
DNA 1: CAATCTGAATTCCGGTCTCCC
DNA 2: TGGTGGCTACGACGGGATT
B28: CAUACGA (DNA:RNA)
RNA: B5 RNA with A27U, U31A
DNA 1: CAATCTGAATTCCGGTCTCCC
DNA 2: TGGTGGCTACGACGGGATT
B29: UCACGAG (DNA:RNA)
RNA: B1 RNA with A25U, U26C, U27A, U29G, A31G
DNA 1: CAATCTGAATTCCGGTCTCCC
DNA 2: TGGTGGCTACGACGGGATT
B30: AUUAAUA (DNA:RNA)
RNA: B1 RNA with C28A, U29A, A30U
DNA 1: CAATCTGAATTCCGGTCTCCC
DNA 2: TGGTGGCTACGACGGGATT
B31: CUAUUUU (DNA:RNA)
RNA: B5 RNA with A26U, A28U, C29U, G30U
DNA 1: CAATCTGAATTCCGGTCTCCC
DNA 2: TGGTGGCTACGACGGGATT

Residue numbers refer to the chain shown, from its start. The list shows a part of the results.

The assay deals with T1, RBFOX1 RRM RbFoxmut (Fox-RRM*). Nature of the assay: EMSA; HiTS-Eq, 1 nM pool, 10 min; buffer printed only for the single-RNA assays: 10 mM Tris pH 7.5, 150 mM NaCl, 3.4 mM EDTA, 0.001% NP-40, 30 C. The conditions noted are these: tags: His6 N-terminal (pET28a); label: 5' 32P. In short, it runs like this: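 Purified RbFox RRM, wild type or mutant, was incubated for 10 min in 50 µL with 1 nM of a 5′-radiolabelled RNA pool carrying 7 randomized nucleotides, whose flanks were annealed to DNA oligonucleotides, over a series of increasing protein concentrations. Unbound RNA was resolved on 8% native PAGE, cut out, reverse-transcribed, barcoded by PCR and sequenced on an Illumina HiSeq 2500. Relative association constants were derived from changes in read counts for each RNA species versus the control reaction and normalised to the cognate motif.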
(In general: A gel shift assay detects complexes by their altered migration in electrophoresis.)
On to B1, for which the binding signal is 0.133 KA relative to UGCAUGU.
With B2 the figure was 0.123 KA relative to UGCAUGU; with B3, 0.0858 KA relative to UGCAUGU; with B4, 0.0718 KA relative to UGCAUGU.
On to B5, for which the binding signal is 0.0843 KA relative to UGCAUGU.
As for B6, the figure is 0.152 KA relative to UGCAUGU; as for B7, 0.115 KA relative to UGCAUGU; as for B8, 0.0883 KA relative to UGCAUGU.
On to B9, for which the binding signal is 0.0922 KA relative to UGCAUGU.
On to B10, for which the binding signal was 0.0858 KA relative to UGCAUGU.
Take B11: the binding signal was 0.0809 KA relative to UGCAUGU.
B12: the binding signal was 0.0844 KA relative to UGCAUGU.
For B13, the binding signal is 0.369 KA relative to UGCAUGU.
With B14 the figure was 0.0742 KA relative to UGCAUGU; with B15, 0.118 KA relative to UGCAUGU; with B16, 0.0919 KA relative to UGCAUGU.
For the molecule B17, the binding signal is 0.0855 KA relative to UGCAUGU.
Consider B18, for which the binding signal was 0.0878 KA relative to UGCAUGU.
B19: the binding signal is 0.0676 KA relative to UGCAUGU.
With B20 the figure was 0.0968 KA relative to UGCAUGU; with B21, 0.0828 KA relative to UGCAUGU.
In the case of B22, the binding signal was 0.101 KA relative to UGCAUGU.
Take B23: the binding signal is 0.0856 KA relative to UGCAUGU.
In the case of B24, the binding signal is 0.117 KA relative to UGCAUGU.
B25: the binding signal is 0.123 KA relative to UGCAUGU.
As for B26, the figure is 0.125 KA relative to UGCAUGU.
Regarding B27, the binding signal was 0.152 KA relative to UGCAUGU.
Take B28: the binding signal was 0.0763 KA relative to UGCAUGU.
Take B29: the binding signal is 0.124 KA relative to UGCAUGU.
Regarding B30, the binding signal is 0.14 KA relative to UGCAUGU.
For B31, the binding signal was 0.0929 KA relative to UGCAUGU.
